Measurements published in the supplement of paper PMC4166925.
± gives the standard deviation of the averaged measurements. In all, about 33,000 sequences were measured (“E-score (dimensionless, -0.5 to 0.5)”: median about -0.046, highest 2% from about 0.36 on). The list shows a part of the results.

Tested on: T1, SpTbr T-box DNA-binding domain (GST fusion)
T1 sequence: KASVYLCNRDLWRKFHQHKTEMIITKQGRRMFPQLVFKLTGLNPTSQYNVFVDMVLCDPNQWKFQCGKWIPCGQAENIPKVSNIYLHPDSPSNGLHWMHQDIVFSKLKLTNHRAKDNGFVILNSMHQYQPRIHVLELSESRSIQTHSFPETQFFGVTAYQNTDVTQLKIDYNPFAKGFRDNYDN
Assay: PBM E-score of 8-mer (E-score (dimensionless, -0.5 to 0.5)); Tbr is Tbrain of the sea star Patiria miniata (Pm) or the sea urchin Strongylocentrotus purpuratus (Sp); higher = stronger binding preference; most listed sequences are background and not binding sites
Details: the construct has about 5 more residues each side
How it was run: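 Using the Universal PBM Analysis Suite, every ungapped 8-mer received an enrichment E-score averaged over duplicate arrays. Probe intensities came from double-stranded Universal Agilent oligonucleotide arrays incubated with 200 nM GST-fused Tbr T-box DNA-binding domain in PBS (pH 7.5). That protein was expressed in BL21 E. coli at 20 °C and purified by glutathione affinity chromatography.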

Sequence	PBM E-score of 8-mer
GACCACGA	-0.0723 ± 0.039
TCTATGCA	-0.204 ± 0.024
ACACTAAG	0.223 ± 0.041
GTGCTAGA	0.286 ± 0.022
GGAAAAAC	-0.142 ± 0.13
GGCATTCA	0.0268 ± 0.056
GCAGTGAC	0.0883 ± 0.023
AACTAGAT	-0.281 ± 0.02
GACGGCGC	0.141 ± 0.0081
AGCGCAAA	0.176 ± 0.012
GAACATCC	-0.117 ± 0.019
CCCATACC	-0.0855 ± 0.074
CTGTCTCC	-0.11 ± 0.084
ACGCTCCT	0.066 ± 0.0035
TACAGGTA	-0.0989 ± 0.0047
AAATCACT	-0.0453 ± 0.062
TGCTGAAA	0.0281 ± 0.029
AGCGCATC	-0.00261 ± 0.00078
CATCGCGG	0.173 ± 0.036
ATGCCATG	-0.0937 ± 0.081
CGAGACGA	0.11 ± 0.022
GGCGCCCC	-0.152 ± 0.031
ATTAGGCA	0.119 ± 0.0095
AGGAATAT	-0.15 ± 0.019
AAACCGGC	-0.078 ± 0.0037

Sequence	PBM E-score of 8-mer
CCTATCAC	0.282 ± 0.046
GCTTGCAC	0.186 ± 0.012
CAGGTTGC	0.111 ± 0.087
CCGGCTAG	-0.0855 ± 0.03
GGCCACCC	-0.109 ± 0.015
GGGAGAAA	-0.163 ± 0.018
GTGTATTA	0.0221 ± 0.022
AGTGCACT	-0.0755 ± 0.013
ACTGAACT	-0.166 ± 0.0098
AGGCTGCA	0.0119 ± 0.073
GACCTATA	-0.116 ± 0.02
CGCAGCCC	-0.144 ± 0.013
GGACAGCC	-0.132 ± 0.019
GGCCGACA	0.124 ± 0.0069
AGCGGCCG	0.00554 ± 0.11
CGGCTTCC	-0.121 ± 0.064
AACCCTCA	0.00879 ± 0.079
GCGCTAGC	0.227 ± 0.014
CACATTGG	0.284 ± 0.039
ATCAATCA	0.108 ± 0.021
CGGCTGAA	-0.231 ± 0.021
ATCTGGAG	-0.121 ± 0.061
TAGGTTGA	0.0129 ± 0.0079
CCGTGTGC	0.0129 ± 0.03
GCAAGACC	-0.158 ± 0.0079

Sequence	PBM E-score of 8-mer
CCTTCGGC	-0.184 ± 0.065
ACTAGTGG	0.133 ± 0.029
AGTCTGTC	-0.183 ± 0.063
AGAGACGG	-0.0377 ± 0.014
ATAGCAAC	0.146 ± 0.025
AAGAGGGA	-0.0591 ± 0.016
CGACGCAA	-0.045 ± 0.1
TCGCCGCA	-0.0789 ± 0.033
AACTTCTA	-0.103 ± 0.0015
TAATACCA	-0.0312 ± 0.015
AGCGTCGG	-0.00722 ± 0.054
ACAGAGAG	-0.00734 ± 0.04
CCAGTTTA	-0.0914 ± 0.029
CGCAGGCG	0.247 ± 0.043
ACGAGACC	-0.0823 ± 0.034
AGCGATAG	0.0236 ± 0.061
CCATGTTA	-0.0652 ± 0.0067
CCTCGTAA	-0.0845 ± 0.052
TAGGCGAA	0.0827 ± 0.01
AGGACCTA	-0.217 ± 0.08
CAGGGCGG	-0.142 ± 0.049
AACAACGA	-0.00856 ± 0.0023
GCGGTCAC	0.207 ± 0.043
AGGTCACA	0.267 ± 0.032
AATGACAA	0.0868 ± 0.0078

Sequence	PBM E-score of 8-mer
CGTCAAAC	0.132 ± 0.029
AACCGCTA	0.141 ± 0.0089
ATCAATAA	-0.264 ± 0.016
CGCTGCGC	0.0513 ± 0.1
AAGTCGAA	-0.3 ± 0.051
CTTTGAAA	-0.284 ± 0.062
TCAGTCCA	-0.0208 ± 0.089
GCTGTCCA	-0.0788 ± 0.0064
AACCAATT	-0.112 ± 0.051
AAGCTAGT	0.0947 ± 0.017
CCAGTTCC	-0.105 ± 0.096
TATAGCCA	-0.00579 ± 0.029
CGGCGGCA	0.106 ± 0.037
CGGCAGTC	-0.119 ± 0.026
ATACGTTG	-0.0976 ± 0.014
CGCATCAC	0.241 ± 0.072
ATCTCGCC	0.251 ± 0.012
TCCGGCCA	-0.205 ± 0.009
AAAGATCT	-0.1 ± 0.035
TACTTATA	-0.0325 ± 0.022
CATGTCGA	-0.0673 ± 0.11
TAATTTGA	-0.102 ± 0.023
AAACCTTT	-0.137 ± 0.077
AGCCAACG	-0.00602 ± 0.019
AGCGAACT	0.12 ± 0.0055

Sequence	PBM E-score of 8-mer
GACATATC	-0.0112 ± 0.045
CAGAACAA	-0.146 ± 0.017
CCTCGAGC	0.00142 ± 0.047
CCAGGGCA	-0.265 ± 0.012
CCCAGGAG	-0.188 ± 0.037
ACGGGATA	0.0434 ± 0.024
AGTACTTA	-0.0135 ± 0.058
ATAAGGTC	-0.0916 ± 0.027
CCCTCGAA	-0.00653 ± 0.054
GCAACTTA	0.0187 ± 0.039
ACCACTAC	-0.2325 ± 0.00052
GTGCTAAA	0.384 ± 0.026
CATAGCCG	-0.221 ± 0.016
AATGACCA	-0.058 ± 0.046
AGTTCGAC	-0.217 ± 0.032
CGTGCACA	0.123 ± 0.081
TCGGAAAA	-0.121 ± 0.03
GCTCCGCA	-0.0854 ± 0.025
ATGCATTC	-0.151 ± 0.051
ATAGGGCA	-0.223 ± 0.025
CCATACCG	-0.115 ± 0.017
AACAGCAT	-0.00661 ± 0.007
GCATGACC	-0.155 ± 0.023
GACCGTCA	0.0838 ± 0.01
TATGAATA	-0.218 ± 0.046

Sequence	PBM E-score of 8-mer
AGTACCTA	-0.0731 ± 0.017
AGTTAACA	0.334 ± 0.023
GTAAACAC	0.32 ± 0.0098
CACTTTCA	0.268 ± 0.014
CCACCAGC	-0.192 ± 0.0092
GCCGGGAC	-0.255 ± 0.015
GACGCCGA	0.123 ± 0.037
AGGAGCGG	-0.139 ± 0.014
AAGGCCAC	-0.108 ± 0.057
ATGCCACA	0.00867 ± 0.018
GGAGGTAC	-0.276 ± 0.04
CCCCATTC	-0.144 ± 0.0093
GAAACTGC	-0.0732 ± 0.049
CGAGTTCC	-0.113 ± 0.055
TAATCATA	-0.175 ± 0.018
GCCCGCTA	-0.0812 ± 0.023
CGAATTAC	-0.0983 ± 0.017
TGATGACA	0.251 ± 0.04
TCCCGCGA	0.226 ± 0.02
ACTTATGC	-0.123 ± 0.0083
GAGATATC	0.0386 ± 0.095
CGCCGTAG	-0.145 ± 0.11
GGCGAACC	-0.141 ± 0.05
CAAAACTC	-0.0226 ± 0.13
ACCAATAC	0.0857 ± 0.031

Sequence	PBM E-score of 8-mer
TTAACAAA	0.119 ± 0.037
CGATACAA	-0.145 ± 0.056
AGAGAGCA	-0.0528 ± 0.029
CACAAATA	0.034 ± 0.022
GCGTCGCA	0.112 ± 0.036
AGGGTGCG	0.402 ± 0.01
CGGGTCCA	-0.0177 ± 0.044
CCGCGCGG	0.0794 ± 0.1
ACAATACA	0.0346 ± 0.048
CAGGCGCC	0.175 ± 0.083
GCCATAAC	0.126 ± 0.0033
AAGCGCAC	0.0297 ± 0.0035
CTTGATAC	-0.0707 ± 0.059
GAGCACTC	-0.171 ± 0.033
GGACACCA	0.183 ± 0.045
ATGTTAAG	-0.062 ± 0.022
ACGAGCTA	-0.118 ± 0.015
GAAATCCC	-0.0294 ± 0.026
GGTCTGGA	-0.185 ± 0.063
AGGATTAC	-0.242 ± 0.015
ATCGCCAC	0.302 ± 0.053
CTTCCACA	0.227 ± 0.045
